Holding throughout (assay): pull-down; GST fusions of repressors (full-length or length variants) immobilised on GSH sepharose, incubated with bacterial total protein extracts containing HA-tagged Sin3, Cyc8 or Tup1 (or Tup1 length variants); elution with free GSH, anti-HA blot (Figs. 1, 3, 4, 5); only the target purified
For test [1], the target named is T1, GST-Ure2 length variant aa 1-105 (S. cerevisiae).
T1 sequence: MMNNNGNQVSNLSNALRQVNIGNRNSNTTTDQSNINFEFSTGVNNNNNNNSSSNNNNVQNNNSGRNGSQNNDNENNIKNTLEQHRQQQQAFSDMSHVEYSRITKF

Amino acid sequences for entries named in this document (tags omitted).
UniProt P16649: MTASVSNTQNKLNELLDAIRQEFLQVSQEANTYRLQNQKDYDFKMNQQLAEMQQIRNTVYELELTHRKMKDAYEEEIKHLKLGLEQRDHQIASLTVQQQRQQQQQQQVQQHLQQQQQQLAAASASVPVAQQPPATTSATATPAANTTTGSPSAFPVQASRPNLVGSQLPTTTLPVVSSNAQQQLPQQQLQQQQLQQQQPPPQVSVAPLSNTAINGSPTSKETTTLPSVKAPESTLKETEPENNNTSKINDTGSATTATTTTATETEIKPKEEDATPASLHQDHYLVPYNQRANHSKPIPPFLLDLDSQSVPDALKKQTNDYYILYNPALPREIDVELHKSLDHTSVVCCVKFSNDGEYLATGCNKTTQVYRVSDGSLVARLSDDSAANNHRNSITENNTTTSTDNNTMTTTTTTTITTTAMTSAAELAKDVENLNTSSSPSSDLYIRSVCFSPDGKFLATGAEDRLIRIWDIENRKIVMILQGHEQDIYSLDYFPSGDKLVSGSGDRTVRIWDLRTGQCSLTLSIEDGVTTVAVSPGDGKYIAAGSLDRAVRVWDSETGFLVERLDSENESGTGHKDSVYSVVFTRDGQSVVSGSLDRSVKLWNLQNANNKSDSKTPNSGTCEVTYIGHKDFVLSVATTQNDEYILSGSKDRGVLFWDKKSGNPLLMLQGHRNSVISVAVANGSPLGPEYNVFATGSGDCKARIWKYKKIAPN
UniProt P22579: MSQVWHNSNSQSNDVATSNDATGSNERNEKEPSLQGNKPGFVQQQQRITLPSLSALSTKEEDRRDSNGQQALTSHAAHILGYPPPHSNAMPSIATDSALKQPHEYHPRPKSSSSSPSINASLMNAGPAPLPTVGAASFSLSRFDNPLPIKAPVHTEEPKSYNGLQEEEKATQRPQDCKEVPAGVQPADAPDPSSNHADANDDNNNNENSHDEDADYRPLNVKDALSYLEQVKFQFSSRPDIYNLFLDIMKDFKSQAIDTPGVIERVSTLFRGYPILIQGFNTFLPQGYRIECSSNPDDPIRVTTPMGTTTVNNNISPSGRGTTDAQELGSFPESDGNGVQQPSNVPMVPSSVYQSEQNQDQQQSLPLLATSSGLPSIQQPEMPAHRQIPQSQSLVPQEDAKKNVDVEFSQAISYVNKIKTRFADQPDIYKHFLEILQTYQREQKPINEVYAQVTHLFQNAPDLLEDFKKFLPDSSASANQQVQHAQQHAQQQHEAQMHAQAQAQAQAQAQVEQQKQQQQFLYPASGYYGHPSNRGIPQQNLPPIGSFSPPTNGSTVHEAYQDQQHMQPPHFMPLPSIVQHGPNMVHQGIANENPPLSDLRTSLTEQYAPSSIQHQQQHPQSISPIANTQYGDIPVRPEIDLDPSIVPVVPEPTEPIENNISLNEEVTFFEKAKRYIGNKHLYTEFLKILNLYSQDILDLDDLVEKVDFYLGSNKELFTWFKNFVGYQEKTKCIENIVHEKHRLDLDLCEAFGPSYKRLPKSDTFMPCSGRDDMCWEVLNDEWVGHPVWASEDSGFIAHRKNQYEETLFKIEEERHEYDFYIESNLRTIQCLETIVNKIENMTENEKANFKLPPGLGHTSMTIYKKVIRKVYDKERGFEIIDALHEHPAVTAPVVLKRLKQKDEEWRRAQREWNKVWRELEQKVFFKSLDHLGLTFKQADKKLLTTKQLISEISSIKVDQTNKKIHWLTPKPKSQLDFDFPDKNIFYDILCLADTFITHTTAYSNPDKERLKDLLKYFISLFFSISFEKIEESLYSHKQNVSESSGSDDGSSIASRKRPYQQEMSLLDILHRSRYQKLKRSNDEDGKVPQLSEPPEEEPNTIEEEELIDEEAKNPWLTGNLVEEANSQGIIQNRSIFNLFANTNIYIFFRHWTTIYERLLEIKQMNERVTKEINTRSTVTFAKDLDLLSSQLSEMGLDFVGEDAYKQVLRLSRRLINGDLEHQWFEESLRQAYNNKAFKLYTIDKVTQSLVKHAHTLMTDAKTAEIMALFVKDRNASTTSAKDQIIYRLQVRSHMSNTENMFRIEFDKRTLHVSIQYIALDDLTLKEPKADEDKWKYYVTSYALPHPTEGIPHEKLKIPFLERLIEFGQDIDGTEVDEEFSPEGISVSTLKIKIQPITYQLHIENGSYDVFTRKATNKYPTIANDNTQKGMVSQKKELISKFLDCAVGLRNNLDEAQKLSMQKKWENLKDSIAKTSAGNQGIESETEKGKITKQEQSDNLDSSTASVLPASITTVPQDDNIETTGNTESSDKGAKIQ

Test [2] has as its target T2, GST-Ure2 length variant aa 106-228 (S. cerevisiae) (UniProt P23202).
T2 sequence: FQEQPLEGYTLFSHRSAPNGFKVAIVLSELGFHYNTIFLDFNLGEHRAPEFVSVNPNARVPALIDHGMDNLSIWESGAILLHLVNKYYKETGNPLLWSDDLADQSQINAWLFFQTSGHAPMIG

Test [3] deals with T3, GST-Mot3 (full-length) (S. cerevisiae) (UniProt P54785).
T3 sequence: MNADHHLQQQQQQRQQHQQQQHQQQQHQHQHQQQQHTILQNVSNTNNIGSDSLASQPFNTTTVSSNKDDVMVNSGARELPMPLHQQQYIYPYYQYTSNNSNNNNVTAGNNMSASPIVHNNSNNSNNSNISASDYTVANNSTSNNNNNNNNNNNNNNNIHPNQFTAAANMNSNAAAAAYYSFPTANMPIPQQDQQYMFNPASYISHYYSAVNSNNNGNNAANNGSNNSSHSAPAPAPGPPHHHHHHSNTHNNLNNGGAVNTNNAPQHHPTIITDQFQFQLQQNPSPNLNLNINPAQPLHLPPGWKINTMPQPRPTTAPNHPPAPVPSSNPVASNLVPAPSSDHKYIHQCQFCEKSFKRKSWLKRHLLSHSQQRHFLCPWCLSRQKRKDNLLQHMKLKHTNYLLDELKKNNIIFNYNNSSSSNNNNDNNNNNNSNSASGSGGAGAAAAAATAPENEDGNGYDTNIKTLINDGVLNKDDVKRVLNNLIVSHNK

The target in test [4] is T4, GST-Ure2 (full-length) (S. cerevisiae) (UniProt P23202).
T4 sequence: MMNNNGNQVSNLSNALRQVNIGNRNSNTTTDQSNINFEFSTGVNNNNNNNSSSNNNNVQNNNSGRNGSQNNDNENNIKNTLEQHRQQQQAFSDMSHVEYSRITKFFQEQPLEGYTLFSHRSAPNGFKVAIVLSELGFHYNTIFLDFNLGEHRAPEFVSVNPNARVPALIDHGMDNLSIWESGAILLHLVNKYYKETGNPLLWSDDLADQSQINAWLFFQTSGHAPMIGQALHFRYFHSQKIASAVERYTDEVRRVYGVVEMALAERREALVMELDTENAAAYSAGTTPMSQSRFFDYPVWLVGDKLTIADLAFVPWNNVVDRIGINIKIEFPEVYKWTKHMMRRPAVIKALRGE

The target in test [5] is T5, GST-Rox1 (full-length) (S. cerevisiae) (UniProt P25042).
T5 sequence: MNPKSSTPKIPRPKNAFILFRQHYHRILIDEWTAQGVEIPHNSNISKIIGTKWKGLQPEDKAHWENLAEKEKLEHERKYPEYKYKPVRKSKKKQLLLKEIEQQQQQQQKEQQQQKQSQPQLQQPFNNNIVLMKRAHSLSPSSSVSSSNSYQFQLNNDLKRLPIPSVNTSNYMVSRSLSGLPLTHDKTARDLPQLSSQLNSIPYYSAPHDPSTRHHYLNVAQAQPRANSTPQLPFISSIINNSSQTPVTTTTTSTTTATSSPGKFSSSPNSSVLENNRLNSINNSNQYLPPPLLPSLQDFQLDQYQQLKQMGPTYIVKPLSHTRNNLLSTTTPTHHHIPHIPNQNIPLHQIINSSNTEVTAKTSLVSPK

For test [6], the target named is T6, GST-Gal80 (full-length) (S. cerevisiae) (UniProt P04387).
T6 sequence: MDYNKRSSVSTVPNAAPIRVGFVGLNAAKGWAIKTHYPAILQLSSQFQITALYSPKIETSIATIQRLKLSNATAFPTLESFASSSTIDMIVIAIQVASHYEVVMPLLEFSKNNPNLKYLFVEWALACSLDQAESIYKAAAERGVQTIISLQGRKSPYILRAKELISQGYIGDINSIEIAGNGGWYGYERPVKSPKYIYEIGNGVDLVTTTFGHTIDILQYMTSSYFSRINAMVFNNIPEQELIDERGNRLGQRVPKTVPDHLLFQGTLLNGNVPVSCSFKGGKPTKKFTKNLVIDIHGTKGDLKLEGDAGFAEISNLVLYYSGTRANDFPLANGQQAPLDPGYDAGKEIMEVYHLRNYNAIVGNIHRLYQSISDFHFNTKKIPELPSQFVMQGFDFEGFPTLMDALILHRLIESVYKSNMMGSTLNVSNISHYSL

Results are given in words; binding and its absence hold for the method and conditions named. In cells and extracts the contact can be indirect. Some results given as binding are weak or reduced against the parent protein; the word gives no strength. Sequences can lack the tags named with a protein.

“HA3-Tup1 (full-length; pFK76) (from UniProt P16649 1-713)”: the binding result is given as “binds” in test [1]; “no binding” in test [2]; “binds” in test [3]; “binds” in test [4]; “binds” in test [5]; “binds” in test [6].
As to “HA3-Sin3 (full-length, aa 1-1536; pSW11) (from UniProt P22579 1-1536)”, the binding result in test [3] and in test [5] was “binds” each time.

B1: HA3-Cyc8 (aa 1-398 with 10 TPR motifs; pFK77) (domain or fragment, UniProt P14922 1-398)
chain: MNPGGEQTIMEQPAQQQQQQQQQQQQQQQQAAVPQQPLDPLTQSTAETWLSIASLAETLGDGDRAAMAYDATLQFNPSSAKALTSLAHLYRSRDMFQRAAELYERALLVNPELSDVWATLGHCYLMLDDLQRAYNAYQQALYHLSNPNVPKLWHGIGILYDRYGSLDYAEEAFAKVLELDPHFEKANEIYFRLGIIYKHQGKWSQALECFRYILPQPPAPLQEWDIWFQLGSVLESMGEWQGAKEAYEHVLAQNQHHAKVLQQLGCLYGMSNVQFYDPQKALDYLLKSLEADPSDATTWYHLGRVHMIRTDYTAAYDAFQQAVNRDSRNPIFWCSIGVLYYQISQYRDALDAYTRAIRLNPYISEVWYDLGTLYETCNNQLSDALDAYKQAARLDVNN
Consider B1, for which the binding result is listed as “binds” in test [1]; “no binding” in test [2]; “binds” in test [3]; “binds” in test [4]; “binds” in test [5]; “binds” in test [6].

The values above are taken from publication PMC10163088.
